Some of the results follow. The energies were worked out here from pooled read counts, against the library average; single values are noisy.
target: T1, Pho4 (S. cerevisiae) (UniProt P07270); test: relative binding free energy (BET-seq); higher = weaker binding; conditions: reference: library average
T1 sequence: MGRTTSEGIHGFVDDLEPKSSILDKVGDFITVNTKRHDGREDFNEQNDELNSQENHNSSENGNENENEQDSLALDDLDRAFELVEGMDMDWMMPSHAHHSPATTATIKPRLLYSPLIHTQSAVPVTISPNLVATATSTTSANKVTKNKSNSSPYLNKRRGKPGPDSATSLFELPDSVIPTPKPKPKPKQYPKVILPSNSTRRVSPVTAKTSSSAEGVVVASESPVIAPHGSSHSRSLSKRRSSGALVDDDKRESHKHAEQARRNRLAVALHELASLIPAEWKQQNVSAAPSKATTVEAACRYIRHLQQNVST

Sequence	relative binding free energy [kcal/mol]
TCTTACACGTGTGGTT	0.26
GTGTACACGTGTTGGA	0.06
GATGGCACGTGTGCTA	0.05
CAGGACACGTGGGTTA	-0.14
TAATTCACGTGTTGTG	0.21
GTGAACACGTGATATG	0.27
AGTTACACGTGTGTCA	0.22
GGAGCCACGTGCGGGT	-0.02
TAAGGCACGTGAGTTG	0.17
GGTGGCACGTGTCGAG	0.02
ATGGGCACGTGTGCCT	-0.02
AAGAACACGTGTGGTA	0.08
GCGTTCACGTGGTGCT	0.21
ATAGTCACGTGGTGTT	0.03
GGGGACACGTGAGACG	0.22
ACGTACACGTGGGTAT	-0.02
GTTCACACGTGAAGGG	0.47
GGGCTCACGTGGGGCG	0.02
ATTGACACGTGTTCTT	0.08
TGGGGCACGTGAGGGT	0.14
GTTGGCACGTGGAAGG	0.11
ATGGACACGTGTGGGT	0.15
AGAGGCACGTGGTTCT	-0.14

Sequence	relative binding free energy [kcal/mol]
CTGGGCACGTGAGAGA	0.27
AGTCACACGTGAGGGT	0.23
GAGTGCACGTGCGTGA	0.04
TTCGTCACGTGTTTAG	0.11
ATGAACACGTGGGGGC	-0.13
GTTTTCACGTGTTCGT	0.38
ACTAGCACGTGAGGTG	0.1
GGCAGCACGTGGGGGC	-0.25
TTTGGCACGTGGGTGA	-0.14
GAATACACGTGTTGGT	0.28
ATATTCACGTGTTCGG	0.13
GAAATCACGTGGTATT	0.14
TGGTACACGTGGAGTC	0.12
CGTTTCACGTGTGAGA	0.38
AGAATCACGTGGGTTT	0.11
TGCTGCACGTGTGTGG	0.02
TTTGTCACGTGGGCTT	-0.02
GTTCACACGTGTTAAG	0.25
ATAGTCACGTGGTGGC	0.07
AGATTCACGTGTGAGG	0.44
CTGTTCACGTGTTCTT	0.22
TGGATCACGTGAGGTC	0.29
GTAAACACGTGGGCGG	0.1

Sequence	relative binding free energy [kcal/mol]
TGAAACACGTGATTTG	0.11
TTCTTCACGTGTTTGG	0.26
TTTAACACGTGTTACG	0.06
TGGGGCACGTGAGCTA	0.11
GGTGACACGTGAGTTA	0.34
CATGACACGTGAGGGT	0.24
CGTTGCACGTGCGTAT	-0.09
TGTTACACGTGTTTCG	0.14
GTCTTCACGTGAGTCT	0.47
TGTGGCACGTGTCAAA	-0.07
AAATTCACGTGAGGTT	0.38
TGTGTCACGTGTTAAG	0.12
AAGGTCACGTGAGATG	0.41
GGGGGCACGTGAGAAG	0.13
CGTAGCACGTGAGGGG	0.1
AGAGGCACGTGTGTAA	-0.01
TTGCTCACGTGTAGTT	0.09
TTCTTCACGTGTTTGA	0.21
TGGGACACGTGGATGC	0.04
ATAACCACGTGTGGTG	-0.08
GAATGCACGTGTGTAG	0.15
GGTAACACGTGGCGAG	0.12
TTAGTCACGTGATATC	0.2

Sequence	relative binding free energy [kcal/mol]
TGGCGCACGTGCGTGA	-0.23
TAGTACACGTGATGTA	0.08
TATAGCACGTGTCAGG	-0.09
CTGTTCACGTGATAAG	0.33
CGGTCCACGTGTTGGA	0.02
CAGTTCACGTGGTATG	0.29
ATTGACACGTGTATGA	0.04
TACTTCACGTGTTATG	0.06
TTGTGCACGTGTCGGA	0.04
GGATACACGTGTTATG	0.13
TTTGCCACGTGTGTGT	-0.14
TGAGACACGTGAACGG	0.29
GGTGTCACGTGAGTTG	0.28
TGTGGCACGTGCGCAG	-0.2
AGTCGCACGTGTGTGC	-0.02
TCTGTCACGTGGTTTC	0.12
GTACCCACGTGGGGGT	-0.12
ATGTCCACGTGGGCTG	-0.06
TATTCCACGTGGCGTT	0.07
AGGGACACGTGGGCGT	-0.22
AAAGTCACGTGAGGAA	0.6
ACGTGCACGTGTTATT	-0.14
ATCTTCACGTGTGATG	0.44

Sequence	relative binding free energy [kcal/mol]
GATTTCACGTGCTTTT	0.21
TGGGCCACGTGCGTAG	-0.21
TAGTGCACGTGAGCGA	0.17
AGTTGCACGTGGTTTG	0
CCGAGCACGTGGGTGG	-0.34
TGTGTCACGTGGCGCT	0.05
TATGACACGTGGGTCG	-0.24
CGTGGCACGTGGATGA	0.03
AGCGGCACGTGGGTAA	-0.3
GAGGTCACGTGTGGGC	0.22
CTTAACACGTGATGGG	0.07
GTTGGCACGTGCGTGT	-0.07
TTTTTCACGTGCAGGA	0.41
ACGGTCACGTGGTGAA	-0.01
TTAGGCACGTGAATGG	0.16
GCTAGCACGTGGGAGT	0
CGCTTCACGTGGGGGG	0.04
TTGGCCACGTGATGAG	0.06
ATGATCACGTGTGGAA	0.11
GTTAACACGTGGTACG	0.01
GGTGTCACGTGACAGA	0.35
TGGCGCACGTGGGATC	-0.08
GGCTTCACGTGTTTTT	0.41

— the BET-seq Pho4 binding data (Le et al. 2018)
